According to the antibiotic and cytotoxicity screens of Wong et al. (2023):
This is one part of the list.

Tested on: S. aureus RN4220
Assay: growth inhibition call (relative growth <= 0.2)
Settings: 50 µM

Growth inhibition call, inactive:
CSc1nc(Cl)cc(Cl)n1
C[C@H](CO)N1C[C@H](C)[C@@H](CN(C)C(=O)Nc2ccc(C(F)(F)F)cc2)Oc2c(NS(C)(=O)=O)cccc2C1=O
COc1ccc(S(=O)(=O)N(C)C[C@H]2Oc3ccc(NS(=O)(=O)c4ccc(C)cc4)cc3C(=O)N([C@H](C)CO)C[C@@H]2C)cc1
C[C@@H]1CN([C@@H](C)CO)S(=O)(=O)c2ccc(C#Cc3cccnc3)cc2O[C@@H]1CN(C)CC1CCOCC1
CC(C)NC(=O)N(C)C[C@@H]1Oc2c(NC(=O)C3CCOCC3)cccc2C(=O)N([C@@H](C)CO)C[C@H]1C
CC[C@@H](CO)NC(=O)c1ccc(N)cc1
C[C@@H]1CCCCO[C@H](CN(C)S(=O)(=O)c2cccs2)[C@@H](C)CN([C@H](C)CO)C(=O)c2cc(NC(=O)c3ccccc3)ccc2O1
Cc1ccc(C(=O)Oc2ccc(/C=N/c3cccs3)cc2)cc1
Cc1ccc(-c2ccc3c(c2)O[C@@H](CN(C)C(=O)Nc2ccc(C(F)(F)F)cc2)[C@H](C)CN([C@@H](C)CO)S3(=O)=O)cc1
C[C@@H]1CN([C@H](C)CO)C(=O)c2cccc(NC(=O)c3cnccn3)c2O[C@H]1CN(C)S(=O)(=O)c1ccc(F)cc1
CN1CCN(C(=O)C[C@H]2CC[C@@H]3[C@H](COC[C@H](O)CN3CC3CCCC3)O2)CC1
C[C@H](CO)N1C[C@H](C)[C@@H](CN(C)CC2CCCCC2)Oc2ccc(NC(=O)CCN3CCOCC3)cc2CC1=O
